From paper PMC9911399, “Two distinct binding modes provide the RNA-binding protein RbFox with extraordinary sequence specificity”
Substitutions are numbered along the chain they refer to; changes in the protein carry UniProt numbers. Some of the results follow.

T1: RBFOX1 RRM RbFoxmut (Fox-RRM*) (Homo sapiens, UniProt Q9NWB1 109-208, R118D;E147R;N151S;E152T)
T1 sequence: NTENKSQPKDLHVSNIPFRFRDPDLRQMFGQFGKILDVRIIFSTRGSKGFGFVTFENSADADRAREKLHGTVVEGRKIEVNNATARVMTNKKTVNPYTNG

B1: UGCUUGC (DNA:RNA)
RNA: GGGAGACCGGAAUUCAGAUUGUCCUGCUUGCUUAAAUCCCGUCGUAGCCACCA
DNA 1: CAATCTGAATTCCGGTCTCCC
DNA 2: TGGTGGCTACGACGGGATT
B2: CGAAGUC (DNA:RNA)
RNA: B1 RNA with U25C, C27A, U28A, U29G, G30U
DNA 1: CAATCTGAATTCCGGTCTCCC
DNA 2: TGGTGGCTACGACGGGATT
B3: GGCCUUC (DNA:RNA)
RNA: B1 RNA with U25G, U28C, G30U
DNA 1: CAATCTGAATTCCGGTCTCCC
DNA 2: TGGTGGCTACGACGGGATT
B4: CUGAGGC (DNA:RNA)
RNA: B1 RNA with U25C, G26U, C27G, U28A, U29G
DNA 1: CAATCTGAATTCCGGTCTCCC
DNA 2: TGGTGGCTACGACGGGATT
B5: CGUGUGU (DNA:RNA)
RNA: B1 RNA with U25C, C27U, U28G, C31U
DNA 1: CAATCTGAATTCCGGTCTCCC
DNA 2: TGGTGGCTACGACGGGATT
B6: UCCGAAU (DNA:RNA)
RNA: B1 RNA with G26C, U28G, U29A, G30A, C31U
DNA 1: CAATCTGAATTCCGGTCTCCC
DNA 2: TGGTGGCTACGACGGGATT
B7: UAGCUUG (DNA:RNA)
RNA: B1 RNA with G26A, C27G, U28C, G30U, C31G
DNA 1: CAATCTGAATTCCGGTCTCCC
DNA 2: TGGTGGCTACGACGGGATT
B8: GAAAACG (DNA:RNA)
RNA: GGGAGACCGGAAUUCAGAUUGUCCGAAAACGUUAAAUCCCGUCGUAGCCACCA
DNA 1: CAATCTGAATTCCGGTCTCCC
DNA 2: TGGTGGCTACGACGGGATT
B9: CUGAUAU (DNA:RNA)
RNA: B8 RNA with G25C, A26U, A27G, A29U, C30A, G31U
DNA 1: CAATCTGAATTCCGGTCTCCC
DNA 2: TGGTGGCTACGACGGGATT
B10: CUGCCCA (DNA:RNA)
RNA: B8 RNA with G25C, A26U, A27G, A28C, A29C, G31A
DNA 1: CAATCTGAATTCCGGTCTCCC
DNA 2: TGGTGGCTACGACGGGATT
B11: CUGUAAC (DNA:RNA)
RNA: B1 RNA with U25C, G26U, C27G, U29A, G30A
DNA 1: CAATCTGAATTCCGGTCTCCC
DNA 2: TGGTGGCTACGACGGGATT
B12: GCCGCAC (DNA:RNA)
RNA: B1 RNA with U25G, G26C, U28G, U29C, G30A
DNA 1: CAATCTGAATTCCGGTCTCCC
DNA 2: TGGTGGCTACGACGGGATT
B13: CGUGUAU (DNA:RNA)
RNA: B1 RNA with U25C, C27U, U28G, G30A, C31U
DNA 1: CAATCTGAATTCCGGTCTCCC
DNA 2: TGGTGGCTACGACGGGATT
B14: UUUGCCC (DNA:RNA)
RNA: B1 RNA with G26U, C27U, U28G, U29C, G30C
DNA 1: CAATCTGAATTCCGGTCTCCC
DNA 2: TGGTGGCTACGACGGGATT
B15: AAGCCAA (DNA:RNA)
RNA: B8 RNA with G25A, A27G, A28C, A29C, C30A, G31A
DNA 1: CAATCTGAATTCCGGTCTCCC
DNA 2: TGGTGGCTACGACGGGATT
B16: UGAGUGU (DNA:RNA)
RNA: B1 RNA with C27A, U28G, C31U
DNA 1: CAATCTGAATTCCGGTCTCCC
DNA 2: TGGTGGCTACGACGGGATT
B17: GGAACAU (DNA:RNA)
RNA: B8 RNA with A26G, A29C, C30A, G31U
DNA 1: CAATCTGAATTCCGGTCTCCC
DNA 2: TGGTGGCTACGACGGGATT
B18: CCUCAAU (DNA:RNA)
RNA: B8 RNA with G25C, A26C, A27U, A28C, C30A, G31U
DNA 1: CAATCTGAATTCCGGTCTCCC
DNA 2: TGGTGGCTACGACGGGATT
B19: CCUAGUA (DNA:RNA)
RNA: B8 RNA with G25C, A26C, A27U, A29G, C30U, G31A
DNA 1: CAATCTGAATTCCGGTCTCCC
DNA 2: TGGTGGCTACGACGGGATT
B20: AUCAUUA (DNA:RNA)
RNA: B1 RNA with U25A, G26U, U28A, G30U, C31A
DNA 1: CAATCTGAATTCCGGTCTCCC
DNA 2: TGGTGGCTACGACGGGATT
B21: CGUCGGC (DNA:RNA)
RNA: B1 RNA with U25C, C27U, U28C, U29G
DNA 1: CAATCTGAATTCCGGTCTCCC
DNA 2: TGGTGGCTACGACGGGATT
B22: CAGAGGU (DNA:RNA)
RNA: B8 RNA with G25C, A27G, A29G, C30G, G31U
DNA 1: CAATCTGAATTCCGGTCTCCC
DNA 2: TGGTGGCTACGACGGGATT
B23: AGGAUGC (DNA:RNA)
RNA: B1 RNA with U25A, C27G, U28A
DNA 1: CAATCTGAATTCCGGTCTCCC
DNA 2: TGGTGGCTACGACGGGATT
B24: UUCACGU (DNA:RNA)
RNA: B1 RNA with G26U, U28A, U29C, C31U
DNA 1: CAATCTGAATTCCGGTCTCCC
DNA 2: TGGTGGCTACGACGGGATT
B25: GGGCAAC (DNA:RNA)
RNA: B8 RNA with A26G, A27G, A28C, C30A, G31C
DNA 1: CAATCTGAATTCCGGTCTCCC
DNA 2: TGGTGGCTACGACGGGATT
B26: CGCAAAC (DNA:RNA)
RNA: B1 RNA with U25C, U28A, U29A, G30A
DNA 1: CAATCTGAATTCCGGTCTCCC
DNA 2: TGGTGGCTACGACGGGATT
B27: GUCUUAG (DNA:RNA)
RNA: B1 RNA with U25G, G26U, G30A, C31G
DNA 1: CAATCTGAATTCCGGTCTCCC
DNA 2: TGGTGGCTACGACGGGATT
B28: UAAAAUG (DNA:RNA)
RNA: B8 RNA with G25U, C30U
DNA 1: CAATCTGAATTCCGGTCTCCC
DNA 2: TGGTGGCTACGACGGGATT
B29: UGAUCAU (DNA:RNA)
RNA: B1 RNA with C27A, U29C, G30A, C31U
DNA 1: CAATCTGAATTCCGGTCTCCC
DNA 2: TGGTGGCTACGACGGGATT
B30: AGAAGUA (DNA:RNA)
RNA: B8 RNA with G25A, A26G, A29G, C30U, G31A
DNA 1: CAATCTGAATTCCGGTCTCCC
DNA 2: TGGTGGCTACGACGGGATT
B31: UCAGCUA (DNA:RNA)
RNA: B8 RNA with G25U, A26C, A28G, A29C, C30U, G31A
DNA 1: CAATCTGAATTCCGGTCTCCC
DNA 2: TGGTGGCTACGACGGGATT

What follows are binders tested against T1, RBFOX1 RRM RbFoxmut (Fox-RRM*) (assay: EMSA; HiTS-Eq, 1 nM pool, 10 min; buffer printed only for the single-RNA assays: 10 mM Tris pH 7.5, 150 mM NaCl, 3.4 mM EDTA, 0.001% NP-40, 30 C). Conditions: tags: His6 N-terminal (pET28a); label: 5' 32P.
Summary of the method: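 Purified RbFox RRM, wild type or mutant, was incubated for 10 min in 50 µL with 1 nM of a 5′-radiolabelled RNA pool carrying 7 randomized nucleotides, whose flanks were annealed to DNA oligonucleotides, over a series of increasing protein concentrations. Unbound RNA was resolved on 8% native PAGE, cut out, reverse-transcribed, barcoded by PCR and sequenced on an Illumina HiSeq 2500. Relative association constants were derived from changes in read counts for each RNA species versus the control reaction and normalised to the cognate motif.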

Row | Binder | binding signal
1 | B1 | 0.264 KA relative to UGCAUGU
2 | B2 | 0.0864 KA relative to UGCAUGU
3 | B3 | 0.195 KA relative to UGCAUGU
4 | B4 | 0.0918 KA relative to UGCAUGU
5 | B5 | 0.249 KA relative to UGCAUGU
6 | B6 | 0.0661 KA relative to UGCAUGU
7 | B7 | 0.21 KA relative to UGCAUGU
8 | B8 | 0.0811 KA relative to UGCAUGU
9 | B9 | 0.0873 KA relative to UGCAUGU
10 | B10 | 0.0869 KA relative to UGCAUGU
11 | B11 | 0.099 KA relative to UGCAUGU
12 | B12 | 0.0799 KA relative to UGCAUGU
13 | B13 | 0.211 KA relative to UGCAUGU
14 | B14 | 0.0706 KA relative to UGCAUGU
15 | B15 | 0.0827 KA relative to UGCAUGU
16 | B16 | 0.175 KA relative to UGCAUGU

Row | Binder | binding signal
17 | B17 | 0.0858 KA relative to UGCAUGU
18 | B18 | 0.0549 KA relative to UGCAUGU
19 | B19 | 0.128 KA relative to UGCAUGU
20 | B20 | 0.154 KA relative to UGCAUGU
21 | B21 | 0.118 KA relative to UGCAUGU
22 | B22 | 0.113 KA relative to UGCAUGU
23 | B23 | 0.203 KA relative to UGCAUGU
24 | B24 | 0.0938 KA relative to UGCAUGU
25 | B25 | 0.063 KA relative to UGCAUGU
26 | B26 | 0.0555 KA relative to UGCAUGU
27 | B27 | 0.149 KA relative to UGCAUGU
28 | B28 | 0.0953 KA relative to UGCAUGU
29 | B29 | 0.068 KA relative to UGCAUGU
30 | B30 | 0.156 KA relative to UGCAUGU
31 | B31 | 0.119 KA relative to UGCAUGU
